We go through one molecule from US20180148503A1 (Memorial Sloan Kettering, published 2018).

The target of assay [1] is T1, 009-AAAA (…) / HLA-A*0201 complex on T2 cells (human).
T1 construct: Control peptide with alanines at positions 4-7; also called EXT009-AAAA; 009-AAAA (position 4-7)
The assay is described as follows: phage FACS on peptide-loaded T2 cells.

In assay [2] the target is T2, HLA-A*0201 on T2 cells without added peptide (human).
T2 construct: Background target (T2 cells with no peptide pulsed); also used as the HLA-A*02 partner of the peptide in the stabilisation read-out; also called T2 cells alone; unpulsed T2 cells
The assay is described as follows: phage FACS on T2 cells without peptide.

Assay [3] concerns the target T3, 009-mut3 (…) / HLA-A*0201 complex on T2 cells (human).
T3 construct: also called EXT009-mut3; Pr302A
In words: phage FACS on peptide-loaded T2 cells.

For assay [4], the target named is T4, 009-mut2 (…) / HLA-A*0201 complex on T2 cells (human).
T4 construct: also called EXT009-mut2
The assay is described as follows: phage FACS on peptide-loaded T2 cells.

Assay [5] addresses T5, 009-mut10 (…) / HLA-A*0201 complex on T2 cells (human).
T5 construct: Alanine variant at peptide position 10
The assay is described as follows: phage FACS on peptide-loaded T2 cells.

Assay [6] deals with T6, PRA300-309 (…) / HLA-A*0201 complex (human).
T6 construct: also called PRAME300; PRAME P300
The assay is described as follows: phage FACS on peptide-loaded T2 cells.

For assay [7], the target named is T7, 009-mut8 (…) / HLA-A*0201 complex on T2 cells (human).
T7 construct: also called EXT009-mut8
In words: phage FACS on peptide-loaded T2 cells.

Assay [8] deals with T8, 009-mut6 (…) / HLA-A*0201 complex on T2 cells (human).
T8 construct: also called EXT009-mut6
The assay is described as follows: phage FACS on peptide-loaded T2 cells.

Assay [9] addresses T9, 009-mut5 (…) / HLA-A*0201 complex on T2 cells (human).
T9 construct: also called EXT009-mut5
In words: phage FACS on peptide-loaded T2 cells.

The target in assay [10] is T10, 009-mut7 (…) / HLA-A*0201 complex on T2 cells (human).
T10 construct: also called EXT009-mut7; Pr306A
In words: phage FACS on peptide-loaded T2 cells.

Assay [11] addresses T11, 009-mut4 (…) / HLA-A*0201 complex on T2 cells (human).
T11 construct: also called EXT009-mut4
In words: phage FACS on peptide-loaded T2 cells.

In assay [12] the target is T12, 009-mut9 (…) / HLA-A*0201 complex on T2 cells (human).
T12 construct: also called EXT009-mut9
The assay is described as follows: phage FACS on peptide-loaded T2 cells.

The target in assay [13] is T1, 009-AAAA (…) / HLA-A*0201 complex on T2 …. In words: phage FACS on peptide-loaded T2 cells. This is another data set of the same source.

B1: EXT009-29 phage (scFv phage clone) (scFv)
scFv: [letters of about 100 residues omitted]SRGGGGSGGGGSGGGGSLEMAQVQLVQSGAEVKKPGASVKVSCKASGYTFSSYGISWVRQAPGQGLEWMGWISPYNGNTNYAQNLQGRVTMTTDTSTTTAYMELRSLTSDDTAVYYCARYSGYYYVDYWGQGTLVTVSS
Consider B1, for which the binding result in assay [1] was “no binding”. The MFI in assay [2] was found to be 89.7; in assay [3], 207; in assay [4] it was 90.6; in assay [5], 720; in assay [6], 20100; in assay [7], 124. The MFI in [8] stood at 45700; in [9], 15200; in assay [10], 25600; in [11], 954; in [12], 192; in assay [13] it was 111.
